Results on six molecules are retold here after paper PMC4824456.

Amino acid sequences for entries named in this document (tags omitted). Residues count along the entry.
UniProt P10923, residues 17-294: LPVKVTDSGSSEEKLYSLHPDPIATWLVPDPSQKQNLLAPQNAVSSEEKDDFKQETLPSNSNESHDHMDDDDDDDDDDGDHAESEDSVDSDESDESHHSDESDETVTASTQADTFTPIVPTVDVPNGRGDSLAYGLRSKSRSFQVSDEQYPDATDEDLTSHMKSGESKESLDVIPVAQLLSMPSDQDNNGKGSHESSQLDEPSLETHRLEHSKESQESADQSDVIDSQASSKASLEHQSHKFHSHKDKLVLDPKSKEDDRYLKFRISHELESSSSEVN
UniProt Q86WV6: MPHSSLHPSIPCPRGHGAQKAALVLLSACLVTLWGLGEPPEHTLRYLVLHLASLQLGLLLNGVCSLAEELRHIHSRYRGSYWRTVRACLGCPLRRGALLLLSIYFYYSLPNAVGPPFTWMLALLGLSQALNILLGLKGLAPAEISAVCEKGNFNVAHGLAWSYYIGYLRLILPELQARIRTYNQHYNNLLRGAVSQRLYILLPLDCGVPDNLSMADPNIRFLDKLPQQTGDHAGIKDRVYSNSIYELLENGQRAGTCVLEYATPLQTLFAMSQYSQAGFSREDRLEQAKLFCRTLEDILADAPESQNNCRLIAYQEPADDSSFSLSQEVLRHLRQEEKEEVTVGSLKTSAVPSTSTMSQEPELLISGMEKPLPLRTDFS
UniProt Q7Z434: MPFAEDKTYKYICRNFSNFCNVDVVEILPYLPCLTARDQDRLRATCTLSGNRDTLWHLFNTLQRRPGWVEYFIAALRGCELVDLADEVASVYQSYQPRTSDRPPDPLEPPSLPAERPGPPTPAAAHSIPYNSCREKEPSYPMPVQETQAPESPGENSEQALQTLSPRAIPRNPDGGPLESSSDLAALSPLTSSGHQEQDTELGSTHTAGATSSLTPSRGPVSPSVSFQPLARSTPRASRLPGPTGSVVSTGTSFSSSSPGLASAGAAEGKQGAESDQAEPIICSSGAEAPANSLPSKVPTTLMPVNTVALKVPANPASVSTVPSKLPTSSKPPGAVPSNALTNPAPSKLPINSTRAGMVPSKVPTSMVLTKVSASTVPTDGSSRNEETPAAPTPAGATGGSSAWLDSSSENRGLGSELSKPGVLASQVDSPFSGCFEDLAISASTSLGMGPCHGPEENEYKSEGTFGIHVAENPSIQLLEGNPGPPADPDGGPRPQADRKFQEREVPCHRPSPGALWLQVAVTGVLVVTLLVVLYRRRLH

These are yes or no findings as the source states them, for the method shown. For part of these data: In cells and extracts the contact can be indirect. Some results given as binding are weak or reduced against the parent protein; the word gives no strength. For part of these data: Tags and fused reporters may be left off the sequences shown.

In experiment [1] the target is Flag-iOPN (intracellular form of osteopontin) (mouse) (UniProt P10923). Nature of the experiment: co-IP.
In experiment [2] the target is T1, endogenous IRF3 of mouse peritoneal macrophages (mouse (endogenous in peritoneal macrophages)), P70671.
T1 chain: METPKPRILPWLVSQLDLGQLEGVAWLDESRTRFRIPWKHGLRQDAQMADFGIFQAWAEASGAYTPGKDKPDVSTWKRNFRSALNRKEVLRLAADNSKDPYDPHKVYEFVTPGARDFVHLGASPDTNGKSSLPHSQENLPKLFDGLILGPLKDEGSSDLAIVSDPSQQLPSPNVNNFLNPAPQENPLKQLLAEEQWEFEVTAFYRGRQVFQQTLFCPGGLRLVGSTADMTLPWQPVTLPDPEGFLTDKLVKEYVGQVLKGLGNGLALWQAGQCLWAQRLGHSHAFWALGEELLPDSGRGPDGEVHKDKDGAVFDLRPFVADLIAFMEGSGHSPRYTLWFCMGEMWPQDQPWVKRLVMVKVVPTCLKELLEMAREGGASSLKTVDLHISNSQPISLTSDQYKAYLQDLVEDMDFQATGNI
The experiment is described as follows: native gel or EMSA. As to conditions: remark: other sources report otherwise.

For experiment [3], the target named is endogenous OPN (osteopontin) of mouse peritoneal macrophages (mouse (endogenous in peritoneal macrophages)) (UniProt P10923). Nature of the experiment: co-IP.

Regarding “Myc-STING (stimulator of interferon genes protein) (from UniProt Q86WV6 1-379)”, the binding entry in experiment [1] was “no binding”. In the case of “HA-MAVS (mitochondrial antiviral signaling protein) (from UniProt Q7Z434 1-540)”, in experiment [1], the binding entry is “no binding”.

B1: endogenous IRF3 of mouse peritoneal macrophages, P70671 1-419 (protein)
chain: T1 chain
On to B1, for which the binding result in experiment [2] is recorded as “binds”.

B2: HA-TBK1 (TANK-binding kinase 1) (enzyme, UniProt Q9UHD2 1-729)
chain: MQSTSNHLWLLSDILGQGATANVFRGRHKKTGDLFAIKVFNNISFLRPVDVQMREFEVLKKLNHKNIVKLFAIEEETTTRHKVLIMEFCPCGSLYTVLEEPSNAYGLPESEFLIVLRDVVGGMNHLRENGIVHRDIKPGNIMRVIGEDGQSVYKLTDFGAARELEDDEQFVSLYGTEEYLHPDMYERAVLRKDHQKKYGATVDLWSIGVTFYHAATGSLPFRPFEGPRRNKEVMYKIITGKPSGAISGVQKAENGPIDWSGDMPVSCSLSRGLQVLLTPVLANILEADQEKCWGFDQFFAETSDILHRMVIHVFSLQQMTAHKIYIHSYNTATIFHELVYKQTKIISSNQELIYEGRRLVLEPGRLAQHFPKTTEENPIFVVSREPLNTIGLIYEKISLPKVHPRYDLDGDASMAKAITGVVCYACRIASTLLLYQELMRKGIRWLIELIKDDYNETVHKKTEVVITLDFCIRNIEKTVKVYEKLMKINLEAAELGEISDIHTKLLRLSSSQGTIETSLQDIDSRLSPGGSLADAWAHQEGTHPKDRNVEKLQVLLNCMTEIYYQFKKDKAERRLAYNEEQIHKFDKQKLYYHATKAMTHFTDECVKKYEAFLNKSEEWIRKMLHLRKQLLSLTNQCFDIEEEVSKYQEYTNELQETLPQKMFTASSGIKHTMTPIYPSSNTLVEMTLGMKKLKEEMEGVVKELAENNHILERFGSLTMDGGLRNVDCL
In the case of B2, the binding entry in experiment [1] was “no binding”.

B3: endogenous TRAF3 of mouse peritoneal macrophages (protein, UniProt Q60803 1-567)
chain: MESSKKMDAAGTLQPNPPLKLQPDRGAGSVLVPEQGGYKEKFVKTVEDKYKCEKCRLVLCNPKQTECGHRFCESCMAALLSSSSPKCTACQESIIKDKVFKDNCCKREILALQVYCRNEGRGCAEQLTLGHLLVHLKNECQFEELPCLRADCKEKVLRKDLRDHVEKACKYREATCSHCKSQVPMIKLQKHEDTDCPCVVVSCPHKCSVQTLLRSELSAHLSECVNAPSTCSFKRYGCVFQGTNQQIKAHEASSAVQHVNLLKEWSNSLEKKVSLLQNESVEKNKSIQSLHNQICSFEIEIERQKEMLRNNESKILHLQRVIDSQAEKLKELDKEIRPFRQNWEEADSMKSSVESLQNRVTELESVDKSAGQAARNTGLLESQLSRHDQMLSVHDIRLADMDLRFQVLETASYNGVLIWKIRDYKRRKQEAVMGKTLSLYSQPFYTGYFGYKMCARVYLNGDGMGKGTHLSLFFVIMRGEYDALLPWPFKQKVTLMLMDQGSSRRHLGDAFKPDPNSSSFKKPTGEMNIASGCPVFVAQTVLENGTYIKDDTIFIKVIVDTSDLPDP
On to B3, for which, in experiment [3], the binding result is “binds”.

B4: Myc-TRAF3-Mut (Y441A, Q443A) (protein, UniProt Q13114 1-568)
chain: MESSKKMDSPGALQTNPPLKLHTDRSAGTPVFVPEQGGYKEKFVKTVEDKYKCEKCHLVLCSPKQTECGHRFCESCMAALLSSSSPKCTACQESIVKDKVFKDNCCKREILALQIYCRNESRGCAEQLMLGHLLVHLKNDCHFEELPCVRPDCKEKVLRKDLRDHVEKACKYREATCSHCKSQVPMIALQKHEDTDCPCVVVSCPHKCSVQTLLRSELSAHLSECVNAPSTCSFKRYGCVFQGTNQQIKAHEASSAVQHVNLLKEWSNSLEKKVSLLQNESVEKNKSIQSLHNQICSFEIEIERQKEMLRNNESKILHLQRVIDSQAEKLKELDKEIRPFRQNWEEADSMKSSVESLQNRVTELESVDKSAGQVARNTGLLESQLSRHDQMLSVHDIRLADMDLRFQVLETASYNGVLIWKIRDYKRRKQEAVMGKTLSLASAPFYTGYFGYKMCARVYLNGDGMGKGTHLSLFFVIMRGEYDALLPWPFKQKVTLMLMDQGSSRRHLGDAFKPDPNSSSFKKPTGEMNIASGCPVFVAQTVLENGTYIKDDTIFIKVIVDTSDLPDP
B4: in experiment [1], the binding result is on record as “no binding”.
